The whole screen tested about 310,000 compounds, of which about 14,000 (4.5%) showed an effect of 50% or more. Effects have a minus sign here. The list shows a part of the results.
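Note: peak tail current of the secondary pulse compared with the same well before compound.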

In this experiment the target is human ether-à-go-go-related gene (hERG) potassium channel (human, UniProt Q12809). Description: primary screen, population patch clamp on CHO cells stably expressing hERG.
Sequence of human ether-à-go-go-related gene (hERG) potassium channel (Q12809 whole entry, looked up): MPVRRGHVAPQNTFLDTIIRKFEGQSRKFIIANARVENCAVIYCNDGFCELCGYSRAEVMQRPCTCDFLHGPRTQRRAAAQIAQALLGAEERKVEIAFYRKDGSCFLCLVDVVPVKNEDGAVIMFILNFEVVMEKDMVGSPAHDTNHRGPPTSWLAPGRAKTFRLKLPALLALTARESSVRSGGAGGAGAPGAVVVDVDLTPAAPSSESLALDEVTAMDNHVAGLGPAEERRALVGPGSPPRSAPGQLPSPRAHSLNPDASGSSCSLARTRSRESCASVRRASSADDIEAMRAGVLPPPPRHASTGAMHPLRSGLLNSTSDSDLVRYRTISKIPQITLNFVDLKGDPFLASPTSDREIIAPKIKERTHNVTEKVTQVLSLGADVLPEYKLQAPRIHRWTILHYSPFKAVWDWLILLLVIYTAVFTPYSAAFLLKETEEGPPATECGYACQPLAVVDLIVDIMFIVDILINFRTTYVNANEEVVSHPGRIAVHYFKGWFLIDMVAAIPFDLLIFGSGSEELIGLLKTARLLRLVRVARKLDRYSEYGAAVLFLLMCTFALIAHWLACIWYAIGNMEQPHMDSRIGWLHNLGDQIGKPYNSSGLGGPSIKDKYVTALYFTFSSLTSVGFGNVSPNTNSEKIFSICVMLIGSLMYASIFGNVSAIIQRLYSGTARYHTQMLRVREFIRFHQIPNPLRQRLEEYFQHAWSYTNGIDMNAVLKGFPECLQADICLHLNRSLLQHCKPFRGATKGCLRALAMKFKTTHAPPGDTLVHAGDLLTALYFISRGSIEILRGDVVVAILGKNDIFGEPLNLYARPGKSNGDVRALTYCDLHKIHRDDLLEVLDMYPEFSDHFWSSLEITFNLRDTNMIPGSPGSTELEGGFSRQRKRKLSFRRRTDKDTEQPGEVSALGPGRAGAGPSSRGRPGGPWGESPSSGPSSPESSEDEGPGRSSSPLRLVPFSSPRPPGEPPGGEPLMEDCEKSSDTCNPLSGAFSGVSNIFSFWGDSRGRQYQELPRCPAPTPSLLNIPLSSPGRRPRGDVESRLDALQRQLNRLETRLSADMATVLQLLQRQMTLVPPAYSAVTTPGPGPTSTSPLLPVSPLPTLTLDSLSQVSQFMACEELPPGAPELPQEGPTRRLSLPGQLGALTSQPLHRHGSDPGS
`Cc1cc(Cl)ccc1NC(=O)CN1C(=O)CSc2ccc(S(=O)(=O)N3CCOCC3)cc21`: the “hERG current change (%, negative = inhibition) at 10uM” value is given as -18.7%.

Turning to `CN(C)CC(O)CN(c1ccccc1)c1ccccc1` (stereo not drawn), the “hERG current change (%, negative = inhibition) at 10uM” value is -54%.

Turning to `CC(c1ccccc1)n1cc(C(=O)NCCN2CCOCC2)nn1` (stereo not drawn), the “hERG current change (%, negative = inhibition) at 10uM” value is given as 1.56%.

As for `CCc1cc2c(=O)n(-c3ccccc3)c(SCC(N)=O)nc2s1`, the “hERG current change (%, negative = inhibition) at 10uM” value is on record as 8.94%.

`Cc1cc(C(=O)Nc2cccc3ccccc23)co1`: the “hERG current change (%, negative = inhibition) at 10uM” value is 8.25%.

In the case of `CC(C)N1CCN(Cc2ccccc2-c2ccco2)CC1CCO` (stereo not drawn), the “hERG current change (%, negative = inhibition) at 10uM” value is reported as -35.3%.

Regarding `Nc1ccc2c(c1)N=[N+]([O-])c1cc(N)ccc1C2`, the “hERG current change (%, negative = inhibition) at 10uM” value stood at 16.6%.

In the case of `O=C(Nc1ccc(F)cc1)c1ccc2snnc2c1`, the “hERG current change (%, negative = inhibition) at 10uM” value was -16.9%.

Regarding `Cc1cc(C)nc(-n2nc(C)cc2Nc2ccccc2)n1`, the “hERG current change (%, negative = inhibition) at 10uM” value is -17%.

Consider `Cc1ccc(S(=O)(=O)N2CCN(C(=O)CSc3nc4ccccc4o3)C2)cc1`, for which the “hERG current change (%, negative = inhibition) at 10uM” value is -17.2%.

On to `O=C(/C=C\c1ccco1)NC(=S)Nc1ccccc1O`, for which the “hERG current change (%, negative = inhibition) at 10uM” value was found to be 7.66%.

As to `COc1ccc(NC(=O)c2nc(SC)ncc2Cl)cc1`, the “hERG current change (%, negative = inhibition) at 10uM” value is recorded as -17.3%.

For `CCCOc1ccc(C(=O)Nc2nc(C)c(Cc3ccc4c(c3)OCO4)s2)cc1`, the “hERG current change (%, negative = inhibition) at 10uM” value is on record as 11.3%.

With `COc1cccc(NC(=S)/C(=C(\[O-])c2ccc(OC(F)F)cc2)[n+]2ccccc2)c1`, the “hERG current change (%, negative = inhibition) at 10uM” value came to 0.529%.

On to `O=c1c2ccc(Cl)cc2[nH]c(=S)n1Cc1cccnc1`, for which the “hERG current change (%, negative = inhibition) at 10uM” value turned out to be 6.96%.

As for `COc1cccc(C2=NN(S(C)(=O)=O)C(c3cccs3)C2)c1` (stereo not drawn), the “hERG current change (%, negative = inhibition) at 10uM” value was -3.8%.

Turning to `O=C(c1cc(F)c(F)cc1Cl)N1CCCc2ccccc21`, the “hERG current change (%, negative = inhibition) at 10uM” value is on record as -0.729%.

Regarding `Cc1cc(SCC(=O)NCCN2C(=O)CSC2=O)nc2c(C)cccc12`, the “hERG current change (%, negative = inhibition) at 10uM” value is listed as 0.207%.

Regarding `Cn1c(CNC(=O)c2cccs2)n[nH]c1=S`, the “hERG current change (%, negative = inhibition) at 10uM” value is listed as 18.1%.

For the molecule `CC(C)(O)/C=C1/Oc2ccccc2C1N1CCCCC1` (stereo not drawn), the “hERG current change (%, negative = inhibition) at 10uM” value was -4.32%.

Turning to `COc1ccccc1CNC(=O)CSc1ccc(C(=O)Nc2ccccc2OC)cc1[N+](=O)[O-]`, the “hERG current change (%, negative = inhibition) at 10uM” value is listed as 1.51%.

`CC(C)=C1C2CCC1C1C(=O)N(c3nccs3)C(=O)C21` (stereo not drawn): the “hERG current change (%, negative = inhibition) at 10uM” value was 33%.

For `Cc1ccc(C(=O)NNC(=O)c2cccc(S(=O)(=O)N3CCN(c4ccccc4)CC3)c2)cc1`, the “hERG current change (%, negative = inhibition) at 10uM” value is -25.4%.

In the case of `COc1cc(NC(=O)c2ccc3c(c2)OCO3)c2ncccc2c1`, the “hERG current change (%, negative = inhibition) at 10uM” value is on record as 12.9%.

As to `COC(=O)c1ccccc1NC(=O)Cn1cnc2cc(C)c(C)cc21`, the “hERG current change (%, negative = inhibition) at 10uM” value is on record as -21.2%.

On to `CCCCC(=O)Nc1ccccc1C(=O)N1CCOCC1`, for which the “hERG current change (%, negative = inhibition) at 10uM” value turned out to be 2.22%.

As to `C(#Cc1ccc(C#CCN2CCOCC2)cc1)CN1CCOCC1`, the “hERG current change (%, negative = inhibition) at 10uM” value is given as -4.47%.

Consider `Oc1c(N=NC(=S)Nc2ccccc2F)c2ccccc2n1Cc1ccccc1F`, for which the “hERG current change (%, negative = inhibition) at 10uM” value is reported as 11%.

As for `Cc1ccc(N2CC(C(=O)Nc3nnc(SCc4ccccn4)s3)CC2=O)cc1` (stereo not drawn), the “hERG current change (%, negative = inhibition) at 10uM” value was -27.5%.

In the case of `CO/N=C\Cc1oc(=O)c(NC(=O)c2ccccc2)cc1C(=O)OC`, the “hERG current change (%, negative = inhibition) at 10uM” value is 0.945%.

In the case of `Cc1ccc(Cn2cccc(NC(=O)CCC3CCCC3)c2=O)cc1`, the “hERG current change (%, negative = inhibition) at 10uM” value is 1.57%.

In the case of `Cc1cc(C(=O)Nc2cccc(O)c2)c(C)o1`, the “hERG current change (%, negative = inhibition) at 10uM” value was 7.6%.

For the molecule `CC1C2C(c3ccccc3)N(C)C(=O)N(C)C2N(C)C(=O)N1C` (stereo not drawn), the “hERG current change (%, negative = inhibition) at 10uM” value amounted to 12.9%.

For `CCN(CC)S(=O)(=O)c1ccc(C(=O)NNC2=NS(=O)(=O)c3ccccc32)cc1`, the “hERG current change (%, negative = inhibition) at 10uM” value stood at 18.3%.

In the case of `C=CCn1c(SCC(=O)N2CCCCCC2)nc2ccccc2c1=O`, the “hERG current change (%, negative = inhibition) at 10uM” value is listed as -59.2%.

`CC(C)(C)NC(=O)CSc1nnc(NC(=O)CCc2ccccc2)s1`: the “hERG current change (%, negative = inhibition) at 10uM” value is 5.82%.

For `Cc1ccc(Nc2nc(CSc3nnc(-c4ccncc4)n3C)cs2)cc1`, the “hERG current change (%, negative = inhibition) at 10uM” value was -35.1%.

For `O=C(CC(=O)NC1CCCCC1)N/N=C/c1cccc2ccccc12`, the “hERG current change (%, negative = inhibition) at 10uM” value was 17.5%.

Regarding `c1ccc2c(c1)nc(N1CCOCC1)c1nnnn12`, the “hERG current change (%, negative = inhibition) at 10uM” value is reported as -4.42%.

As for `O=S(=O)(NCCc1ccccc1)c1cccs1`, the “hERG current change (%, negative = inhibition) at 10uM” value came out at 7.7%.

As for `COc1ccc(NC(=O)/C(C#N)=C\c2cc(C)n(-c3ccc4c(c3)OCO4)c2C)cc1`, the “hERG current change (%, negative = inhibition) at 10uM” value is on record as 3.77%.

Take `CC[N+](CC)(CCO)CCCN1C(=O)C2CC=C(Cl)CC2C1=O.[Br-]` (stereo not drawn): the “hERG current change (%, negative = inhibition) at 10uM” value was determined as 7.9%.

Turning to `O=C(/C=C/c1ccco1)N(Cc1ccccc1)C1CCS(=O)(=O)C1` (stereo not drawn), the “hERG current change (%, negative = inhibition) at 10uM” value is reported as -29.5%.

In the case of `CC1(C)CC(=O)c2c(noc2-c2ccccc2)C1`, the “hERG current change (%, negative = inhibition) at 10uM” value was 7.35%.

Take `Cc1cccc(C(=O)OCC(=O)NN2C(=O)NC3(CCC(C)CC3)C2=O)c1O` (stereo not drawn): the “hERG current change (%, negative = inhibition) at 10uM” value was -2.36%.

These data come from PMC4336329 (PLoS ONE, 2015).
